Assay results reported in PubChem BioAssay AID602332 (National Center for Advancing Translational Sciences (NCATS), 2012).
Several values for one entry are separate records, joined by “and”; a condition that tells them apart may be missing. Equal entries are not always repeated. The whole screen tested about 420,000 compounds, of which about 75 (0.02%) were called active. The inconclusive results got no clear call from the source; some entries with a clear call stand among them for comparison. Calls come from the whole dose curve; as a rule, active = well fitted activation curve with a large enough effect; inconclusive = small, poorly fitted or top-dose-only effect; inactive = no such curve, though single readings can be large or run the other way. Potencies of inconclusive entries are doubtful fits and often do not repeat.

Experiment: qHTS for Inducers of the Endoplasmic Reticulum Stress Response (ERSR) in Human Glioma: qHTS; note: nearly all actives have a fitted effect of over 35% in size; for activation: % of control where 0% means no effect
Settings: U87-MG GRP78 promoter luciferase reporter, 16 h; activation: hits give high values
How it was run: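 Stably transfected U87-MG glioma cells carrying a GRP78-based luciferase sensor; 16 h compound incubation. Luminescence end-point read 10 min after Bright-Glo addition at room temperature.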
Potency is the fitted concentration of half-maximal effect; tags give direction and shape of the fitted curve.

SMILES	Potency	activation
CC(=O)c1cc(C#N)c(SCc2ccccc2)nc1C	inconclusive: 10 µM [activator, partial curve, poor fit]	
CC(=O)OC1CC[C@]2(C)C(CC(OC(C)=O)[C@@]3(C)C4=CC(=O)OC(c5ccoc5)[C@]4(C)CCC23)C1(C)C (some centres undefined)	inconclusive: 50.1 µM [activator, single point] and inconclusive: 44.7 µM [activator, partial curve]	
CC(/C=N/NC(=O)c1nnn(-c2nonc2N)c1C(C)C)=C\c1ccco1	inconclusive: 11.2 µM [activator, full curve, poor fit]	
CCCCc1c(O)nc(SCC(=O)c2ccccc2)[nH]c1=O	inconclusive: 11.2 µM [activator, partial curve, poor fit]	
Cc1ccc(Nc2nc(N3CCOCC3)c3ccccc3n2)cc1	inconclusive: 35.5 µM [activator, partial curve, poor fit]	
Cc1ccc2c(c1)/C(=C/c1ccc(F)cc1)C(=O)N2	inconclusive: 44.7 µM [activator, partial curve, poor fit]	
O=C(COc1ccccc1C(=O)O)NC1CCCc2ccccc21 (centres undefined)		inactive: -4.68%
c1ccc(CN2C3=NCCCN3c3ccccc32)cc1		inactive: -3.49%
COc1cc(C(=O)N/N=C/c2ccc(OC(=O)c3cccc(C)c3)cc2)ccc1O		inactive: -2.44%
Cc1c(NC(=O)CN2C(=O)c3ccccc3S2(=O)=O)c(=O)n(-c2ccccc2)n1C		inactive: -2.74%
COc1ccc(NC(=O)C#Cc2ccccc2)cc1OC	inconclusive: 44.7 µM [activator, partial curve, poor fit]	
COc1cccc(C2=NC(C)(C)NC(c3ccccc3O)C2)c1 (centres undefined)	inconclusive: 50.1 µM [activator, single point]	
Cc1ccc(C2CCN(C(=O)Nc3ccc(F)cc3)C2)cc1 (centres undefined)	inconclusive: 2.24 µM [activator, full curve, poor fit]	
Cc1c(N2C(=O)/C(=C/C3CC=CCC3)SC2=S)c(=O)n(-c2ccccc2)n1C (centres undefined)	inconclusive: 50.1 µM [activator, single point]	
O=C(O)c1cc(NN=Nc2ccc(Br)cc2)cc([N+](=O)[O-])c1	inconclusive: 50.1 µM [activator, single point]	
Cc1cc(C)c(S(=O)(=O)Nc2cccc3cccnc23)c(C)c1	inconclusive: 50.1 µM [activator, partial curve, poor fit]	
CCOC(=O)COc1cc(OCC(=O)OCC)c2c3c(c(=O)oc2c1)CCCC3	inconclusive: 14.1 µM [activator, full curve, poor fit]	
CN(C)c1ccc(Cc2cc3c(O)ccc(O)c3cc(Cc3ccc(N(C)C)cc3)c2=O)cc1	inconclusive: 31.6 µM [activator, partial curve, poor fit]	
COCc1c(C(=O)N2CC3CCC2C3)cnn1-c1nccc(-c2ccccc2OC)n1 (centres undefined)		inactive: 0.515%
CC1(C)Cc2c(c(N3CCCCC3)[nH]c(=S)c2C#N)CS1		inactive: -0.69%
O=C(Nc1cccc(F)c1)NC1CCCCCCC1	inconclusive: 11.2 µM [activator, partial curve, poor fit]	
COc1ccc(N(Cc2cc3ccccc3[nH]c2=O)S(C)(=O)=O)cc1		inactive: 0.102%

SMILES	Potency	activation
CC(Cc1ccccc1)=NNS(=O)(=O)c1ccc([N+](=O)[O-])cc1		inactive: -3.8%
COc1cccc(-c2coc3c(C)c4oc(=O)c(CCC(=O)O)c(C)c4cc23)c1	inconclusive: 44.7 µM [activator, partial curve, poor fit]	
N#CC1=C(N)N(c2ccc(F)cc2)C2=C(C1c1ccc(O)cc1)S(=O)(=O)CC2 (centres undefined)		inactive: 0.674%
CCCCCN1C(C(=O)c2ccccc2)=C(NC(=O)c2ccccc2Cl)c2ccccc2S1(=O)=O	inconclusive: 15.8 µM [activator, single point]	
COc1cnc(-c2ccccc2)nc1Oc1ccc(C(C)(C)C)cc1	inconclusive: 44.7 µM [activator, single point]	
Cc1ccc(Cl)cc1N1CCN(C(=O)Cc2c(C(=O)O)[nH]c3ccc(Cl)cc23)CC1	active: 31.6 µM	
CCOc1cc(N2CCOCC2)c(OCC)cc1NC(=O)CSc1ncccc1C(=O)O		inactive: -3.16%
COc1cc(CN2CCOc3ccc(CN4CCC(O)(c5cccnc5)CC4)cc3C2)ccc1F		inactive: -3.16%
O=C(OCC(=O)N1CCc2ccccc2C1)c1ccc(Cl)c([N+](=O)[O-])c1	inconclusive: 14.1 µM [activator, partial curve, poor fit]	
Cc1cc(C)c2c(c1)/C(=N/Nc1ccc(S(N)(=O)=O)cc1[N+](=O)[O-])CCC2		inactive: -2.02%
Cc1ccc(CCNC(=O)CSCc2ccc(F)cc2)cc1	inconclusive: 63.1 µM [activator, single point]	
COC(=O)/C(=C1/Oc2cc(C)oc(=O)c2S1)C(F)(F)F	inconclusive: 2.24 µM [activator, partial curve, poor fit]	
CCSc1ncc(Cl)c(C(=O)N2CCN(c3ccc(OC)cc3)CC2)n1		inactive: 1.09%
Cc1cc(C)cc(OCC(=O)OCCN2C(=O)c3ccccc3C2=O)c1		inactive: -6.57%
O=C(NNC(=O)c1ccc(SCC2CCCO2)c([N+](=O)[O-])c1)c1ccc(Cl)c([N+](=O)[O-])c1 (centres undefined)	inconclusive: 28.2 µM [activator, single point]	
CC(=O)/C(=N\Nc1ccc(Cl)cc1Cl)Sc1cccc2cccnc12	inconclusive: 44.7 µM [activator, partial curve, poor fit]	
CCOC(=O)Cn1c(=O)oc2cc(S(=O)(=O)Nc3c(C)cc(C)cc3C)ccc21	inconclusive: 28.2 µM [activator, single point]	
OC[C@H]1O[C@@H](n2cnc3c(NCc4ccccc4)ncnc32)[C@H](O)[C@@H]1O	inconclusive: 20 µM [activator, partial curve, poor fit]	
Cc1ccc(Nc2nc(N/N=C/c3c[nH]c4ccccc34)nc(N3CCOCC3)n2)cc1		inactive: -1.66%
COc1ccc(OCCOCCOc2ccc(C)cc2[N+](=O)[O-])cc1		inactive: -5.17%
Cc1ccc(OCCC(=O)OCC(=O)N2CC(=O)Nc3ccccc32)cc1	inconclusive: 35.5 µM [activator, partial curve]	
Cc1c(C)n(C)c2ccc(C(=O)NCCCN3CCCCC3)cc12		inactive: -2.15% and inactive: 8.04%

SMILES	Potency	activation
Cc1ccsc1C(=O)NNC(=S)NC1CCCCC1	inconclusive: 35.5 µM [activator, partial curve, poor fit]	
O=C(CSc1nnc(C2CCCCC2)n1Cc1ccccc1)NCc1ccco1	inconclusive: 50.1 µM [activator, single point]	
O=C(c1ccco1)N1CCN(CCCCOc2cccc3ccccc23)CC1		inactive: -6.16%
O=C(Nc1cccs1)Nc1ccccc1Cl	inconclusive: 5.62 µM [activator, partial curve, poor fit]	
CCOC(=O)CNC(=O)CSc1nc2cccnc2n1Cc1ccccc1	inconclusive: 63.1 µM [activator, single point]	
CC(=O)Nc1cccc(NC(=O)COc2ccc3c(c2)CCC3)c1		inactive: 8.86%
N#CCSc1nc2c(c(=O)n1Cc1ccco1)C1(CCCC1)Cc1ccccc1-2	inconclusive: 44.7 µM [activator, single point]	
Cc1ccccc1-c1ccc2c(c1)O[C@H](CN(C)C(=O)C1CC1)[C@@H](C)CN([C@@H](C)CO)S2(=O)=O	inconclusive: 10 µM [activator, single point]	
CC1CC(=O)c2c(cc3c(-c4c(O)cc(O)c5c(O)c6c(cc45)OC(C)CC6=O)c(O)cc(O)c3c2O)O1 (centres undefined)	inconclusive: 25.1 µM [activator, single point]	
CSc1cccc(NC(=S)N2CCC(N(C)C3CCCC3)CC2)c1	inconclusive: 63.1 µM [activator, single point]	
O=C(N/N=C/c1cccc2ccccc12)c1cc2ccccc2o1	inconclusive: 25.1 µM [activator, single point]	
C=CCN1C(=S)CC(c2ccccc2)=Nc2ccccc21	inconclusive: 28.2 µM [activator, single point]	
Oc1ccc(C2=Nn3c(nnc3-c3ccco3)SC2)cc1O	inconclusive: 50.1 µM [activator, single point]	
Fc1cccc2sc(Nc3nnc(-c4ccccc4)o3)nc12		inactive: 1.05%
O=S(=O)(c1ccccc1)N1CCc2ccccc2C1		inactive: -2.09%
N#C/C(=C\c1ccc(O)c(O)c1)C(=O)NCCc1ccccc1	inconclusive: 15.8 µM [activator, single point] and inconclusive: 13.1 µM [activator, full curve]	
O=C(CSc1nnnn1Cc1ccccc1)c1ccccc1F	inconclusive: 50.1 µM [activator, single point]	
COC(=O)C1=C(C)NC2=C(C(=O)c3ccccc32)C1c1ccc(-c2ccc(C(=O)O)cc2)o1 (centres undefined)	inconclusive: 28.2 µM [activator, full curve, poor fit]	
Oc1[nH]c2ccccc2c1N=Nc1cccc(Cl)c1	inconclusive: 11.2 µM [activator, single point]	
O=C(CNC(=O)c1ccco1)Nc1ccc(OC(F)F)cc1	inconclusive: 10 µM [activator, partial curve, poor fit]	
